Data taken from the supplement of paper PMC11417369.
This is one part of the list.

tested on: PfAP2-HC AP2 domain (GST-tagged); assay: gcPBM binding intensity (ln(normalized median fluorescence intensity)); higher = stronger DNA binding
Method in brief: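 For binding intensity, the highest Masliner-normalised natural-log median intensity across replicate spots of either probe orientation was taken. Protein bound to the array was stained with Alexa488 anti-GST antibody and scanned at 488 nm. The protein, GST-tagged P. falciparum DNA-binding domains from E. coli at about 25 μg on average, had been applied for 1 h to an Agilent 4 × 180k array of primer-extended double-stranded 36-bp intergenic genomic probes and negative controls.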

Row | Sequence | gcPBM binding intensity (ln)
1 | AATTATTTATCGGAATGTACATAAAAACATATGTAT [XGTACX_site7443] | 9.61
2 | AATAATATCATTTAGACACACACTCTTACAATATGT [CACACA_site8832] | 9.93
3 | AATAGCCCATATGGAATACACACTGAAAATAAAAAA [CACACA_site3373] | 10.2
4 | TATAAATTTGTTGTTGCATGCAGTATACCAAAAAAA [TGCATGCA_site445] | 9.57
5 | ATTTGTAATTTATATTCACACATTCAAAAAAATGAG [CACACA_site6057] | 9.42
6 | AAAAATATAATATAATGTACACAAAAAAAAAAAAAT [XGTACX_site4914] | 9.79
7 | TAAAATGTAATCTGAACACACATATTTTTTTAATAT [CACACA_site1768] | 9.67
8 | GTATTATATTTCAACTGTACGTAAAACTATTAAAAT [XGTACX_site3679] | 9.55
9 | TTCATTTAGCAAGAATGTACTTATATATATATATAT [XGTACX_site3401] | 9.57
10 | ATAAAGCCATACAATACACACATTTTACATGGGGGT [CACACA_site9072] | 9.88
11 | CAAAAAAATGTGAAGGCATGCAAATATGTAAAATAA [TGCATGCA_site921] | 10.9
12 | CCATAAAAAGGATACACACACACACCGACATATATA [CACACA_site4653] | 10.9
13 | GTAGTAAATAGGAGGATGCATATGGCACACATTATA [TGCATGCA_negctrl_site59] | 9.96
14 | ATATAAAAATTAAAATGTACATATCTTATTATAATA [XGTACX_site983] | 9.62
15 | TAATAAAATAATATCACACATATTTATATATATTAT [CACACA_site5814] | 9.61
16 | CAACATAAAAATTAAGCATGCAATAGACTTGTGTTG [TGCATGCA_site417] | 9.77
17 | GTTTAAAAAAATTATCAACTTTAAAAAGGTAACATT [XGTACX_negctrl_site203] | 9.41
18 | CACGCATACGGACACACACACACACCGATATATATA [CACACA_site4521] | 11
19 | TATTTTTTTATTTGTGCATGTCATATTTAAACATAA [TGCATGCA_site1006] | 9.63

Row | Sequence | gcPBM binding intensity (ln)
20 | TGAATAATATACATACGTACATACATATATATAATA [XGTACX_site1302] | 9.64
21 | TTTTTTTTTTTTTTTTTTTTCATTCAATTATATTTA [CACACA_negctrl_site712] | 8.79
22 | TTATCACATAAACGATGTACGTACTAGGTTTTTTTT [XGTACX_site2147] | 9.61
23 | AAAGGAATATAATGATGTACACAAATATATATACAT [XGTACX_site5347] | 9.89
24 | AACTAATATAATAATACATGCACATAAAAATATATA [TGCATGCA_site606] | 9.78
25 | TTTACTTTTTTTTCTTGTACTCATACATACTATCAT [XGTACX_site4919] | 9.85
26 | AAATTTCAATAATCTACACACATAAAAAAACAAAAG [CACACA_site1702] | 9.99
27 | GGCAACAATGTAGATTGTACATATGAATTTTACAAT [XGTACX_site5655] | 9.52
28 | ATATTTTGTTTTATAGTGCACATGGGCATATATTAA [GTGCAC_site9435] | 9.57
29 | ATATATATTATCATTGTGCACTTATTTATATACCTT | 10
30 | ATATTTTATTATTGTTGTACTTTTTTTTTTTGATTG [XGTACX_site4091] | 9.65
31 | ATAATATGAAAACACACACACACACTAATAAAAAAA [CACACA_site8617] | 11.5
32 | TTTAATAAATAAATAAATAAAATATATTAAAAACCA [CACACA_negctrl_site80] | 9.51
33 | GCAACACAAAAAATTACACACAAAAAAAATATATTA [CACACA_site916] | 9.86
34 | ATACATAAATACAAACGTACATACATACATACATAC [XGTACX_site7824] | 9.88
35 | CAGCTCTTAAGAATTACACACATATACACATATATA [CACACA_site7524] | 9.95
36 | GAAGAAAAAAAATATACACACATACGATCATACATA [CACACA_site5227] | 10.2
37 | TCCTTTATTTTTAAAGTGCATATACATGTACATTAT [GTGCAC_site9445] | 9.71
38 | ATTCAAAAGATGTATACACACATGTGTATAATATAA [CACACA_site7197] | 9.99

Row | Sequence | gcPBM binding intensity (ln)
39 | AATAATATATATATAATACACACTATTATAATCACA [CACACA_site1310] | 9.79
40 | TTTTAATGTACCAGTGTGCACCTTGCGTACATATTA [GTGCAC_site9957] | 9.66
41 | TTATACAAATTCATGGGTACAAACAAACATATATCA [XGTACX_site6237] | 9.67
42 | TATACCTATAAATACACACACATATAAATAAATATA [CACACA_site6153] | 10.2
43 | AAAATATATACTCCATCACACACCAAAAAGAAAAAA [CACACA_site2542] | 10.5
44 | AATAATAAAAAATATACACACATATATATATATATA [CACACA_site25] | 9.74
45 | AAAAAAAAAAAAAAATGTACATATGGTATGCATATA [XGTACX_site3225] | 9.72
46 | GCTTATAAAGGCAGAAGTACTGTATTCCTATATATA [XGTACX_site8865] | 9.51
47 | TTGGCATACGGACACACACACACACCCAGACATATA [CACACA_site4492] | 10.4
48 | TTTAAATATTTTAATACACACACGATATGTACAAAA [CACACA_site4455] | 9.78
49 | TACAATGAAAAAATAACATGCAATTATATTTCTCTT [TGCATGCA_site833] | 9.52
50 | ACGTGATAAATAAATACATGCATAGAAAGATGCATA [TGCATGCA_site91] | 9.61
51 | TATATATATATATATTGTACTAGTGCATATATATAC [XGTACX_site7926] | 9.61
52 | ATTAAATTTCCTTGAGTGCACATTTTGTTAAAATAT | 9.64
53 | ATAACATATTTCTTTTGTACTCAAAATAAAATTAAT [XGTACX_site2479] | 9.49
54 | AATTTTGTTGAGCACACACACATACATACATACATA [CACACA_site3154] | 10.4
55 | AAATATATTTTATTTTGTACTTATGTATAAAATATA [XGTACX_site914] | 9.52
56 | TGGTATTGAATTTTTTGTACACATAAAATATATATA [XGTACX_site7614] | 9.54
57 | GTGCCATTTAAAAAATGTACAAGAAAATGTTCATCA [XGTACX_site2865] | 9.43
